Reference: US20230212319A1, “NOVEL ANTIGEN BINDING DOMAINS AND SYNTHETIC ANTIGEN RECEPTORS INCORPORATING THE SAME” (University of Southern California, priority 2020, published 2023)

Tested on: HL60 cells
Assay: JNG NFAT-GFP induction on co-culture with HL60

Molecule | GFP induction upon co-culture with HL60
21853 (protein) MALPVTALLLPLALLLHAARPSYVLTQPPSVSVAPGQTARITCGGNNIGGKSVHWYQQPPGQAPVVVVYDDSDRPSGIPERFSGSNSGNTATLTISRVEAGDEAVYYCQVWDSSSDHVVFGGGTKLTVLLEDLKNVFPPEVAVFEPSEAEISHTQKATLVCLATGFYPDHVELSWWVNGKEVHSGVCTDPQPLKEQPALNDSRYCLSSRLRVSATFWQNPRNHFRCQVQFYGLSENDEWTQDRAKPVTQIVSAEAWGRADCGFTSESYQQGVLSATILYEILLGKATLYAVLVSALVLMAMVKRKDSRGRAKRSGSGATNFSLLKQAGDVEENPGPTSMDWIWRILFLVGAATGAHSFEQLQLQESGPGLVKPSETLSLTCTVSGGSISSSSYFWGWIRQPPGKGLEWIGSIYYSGITYYNPSLKSRVTISVDTSKNQFSLKLSSVTAADTAVYYCARHDGAVAGLFDYWGQGTLVTVSSATRIQNPDPAVYQLRDSKSSDKSVCLFTDFDSQTNVSQSKDSDVYITDKCVLDMRSMDFKSNSAVAWSNKSDFACANAFNNSIIPEDTFFPSPESSCDVKLVEKSFETDTNLNFQNLSVIGFRILLLKVAGFNLLMTLRLWSS | no GFP induction
21852 (protein) MALPVTALLLPLALLLHAARPSYVLTQPPSVSVAPGQTARITCGGNNLGSKSVHWYQQPPGQAPVVVVYDDSDRPSGIPERFSGSNSGNTATLTISRVEAGDEAVYYCQVWDSSSDHVVFGGGTKLTVLLEDLKNVFPPEVAVFEPSEAEISHTQKATLVCLATGFYPDHVELSWWVNGKEVHSGVCTDPQPLKEQPALNDSRYCLSSRLRVSATFWQNPRNHFRCQVQFYGLSENDEWTQDRAKPVTQIVSAEAWGRADCGFTSESYQQGVLSATILYEILLGKATLYAVLVSALVLMAMVKRKDSRGRAKRSGSGATNFSLLKQAGDVEENPGPTSMDWIWRILFLVGAATGAHSFEQLQLQESGPGLVKPSETLSLTCTVSGGSISSGSYFWGWIRQPPGKGLEWIGSIYYSGITYYNPTLKSRVTISVDTSKNQFSLKLSSVTAADTAVYYCARHDGAVAGLFDYWGQGTLVTVSSATRIQNPDPAVYQLRDSKSSDKSVCLFTDFDSQTNVSQSKDSDVYITDKCVLDMRSMDFKSNSAVAWSNKSDFACANAFNNSIIPEDTFFPSPESSCDVKLVEKSFETDTNLNFQNLSVIGFRILLLKVAGFNLLMTLRLWSS | no GFP induction
